Laboratory results as given in the supplement of paper PMC12230231.
± gives the standard deviation of the averaged measurements. Restriction of a single-cycle SIVsab GFP reporter by TRIM5α v1-loop variants in CRFK cells. Human variants: read share among cells still uninfected after two challenges over input, higher = gained restriction. Rhesus variants: share among infected cells over input, higher = lost restriction. Reporter dose not given per row. No active / inactive call per row; the paper calls a change when both replicates lie above its controls (mean + 2 SD of stop or wild-type variants, or the top frameshift score). Residues outside the varied loop are taken from Swiss-Prot. The paper reads the human single-substitution scores as noise; they and the rhesus combinations repeat poorly (rank correlation 0.3 to 0.4), indel scores repeat only for the top variants, rhesus substitutions well (0.9).

system: SIVsab (simian immunodeficiency virus of sabaeus monkeys), single-cycle GFP reporter, in CRFK cells; experiment: enrichment among uninfected cells over input (fold); higher = stronger restriction; conditions: library: human / rhesus combinations
Description: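 Pools of CRFK cells expressing variants of the TRIM5α v1 loop were challenged with the single-cycle reporter, sorted by GFP and sequenced; mean of two replicates.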

Row | Sequence | enrichment
1 | MASGILVNVKEEVTCPICLELLTQPLSLDCGHSFCQACLTANHKKSMLDKGESSCPVCRISYQPENIRPNRHVANIVEKLREVKLSPEGQKVDHCARHGEKLLLFCQEDGKVICWLCERSQEHRGHHTFLTEEVAREYQVKLQAALEMLRQKQQEAEELEADIREEKASWKTQIQYDKTNVLADFEQLRDILDWEESNELQNLEKEEEDILKSLTNSETEMVQQTQSLRELISDLEHRLQGSVMELLQGVDGVIKRTENVTLKKPETFPKNQRRVFRAPDLKGMLEVFRELTDVRRYWVDVTVAPNNISCAVISEDKRQVSSPKPQIIYGARGTLFTFQTLVNFNYCTGILGSQSITSGKHYWEVDVSKKTAWILGVCAGFQPDAMCNIEKNENYQPKYGYWVIGLEEGVKCSAFQDSSFHTPSVPFIVPLSVIICPDRVGVFLDYEACTVSFFNITNHGFLIYKFSHCSFSQPVFPYLNPRKCGVPMTLCSPSS [human TRIM5α, 330-340 = GARGTLFTFQTLV] | 0.0929 ± 0.043
2 | MASGILVNVKEEVTCPICLELLTQPLSLDCGHSFCQACLTANHKKSMLDKGESSCPVCRISYQPENIRPNRHVANIVEKLREVKLSPEGQKVDHCARHGEKLLLFCQEDGKVICWLCERSQEHRGHHTFLTEEVAREYQVKLQAALEMLRQKQQEAEELEADIREEKASWKTQIQYDKTNVLADFEQLRDILDWEESNELQNLEKEEEDILKSLTNSETEMVQQTQSLRELISDLEHRLQGSVMELLQGVDGVIKRTENVTLKKPETFPKNQRRVFRAPDLKGMLEVFRELTDVRRYWVDVTVAPNNISCAVISEDKRQVSSPKPQIIYQAPGTRFTFPSLTNFNYCTGILGSQSITSGKHYWEVDVSKKTAWILGVCAGFQPDAMCNIEKNENYQPKYGYWVIGLEEGVKCSAFQDSSFHTPSVPFIVPLSVIICPDRVGVFLDYEACTVSFFNITNHGFLIYKFSHCSFSQPVFPYLNPRKCGVPMTLCSPSS [human TRIM5α, 330-340 = QAPGTRFTFPSLT] | 2.86 ± 1.2
3 | MASGILVNVKEEVTCPICLELLTQPLSLDCGHSFCQACLTANHKKSMLDKGESSCPVCRISYQPENIRPNRHVANIVEKLREVKLSPEGQKVDHCARHGEKLLLFCQEDGKVICWLCERSQEHRGHHTFLTEEVAREYQVKLQAALEMLRQKQQEAEELEADIREEKASWKTQIQYDKTNVLADFEQLRDILDWEESNELQNLEKEEEDILKSLTNSETEMVQQTQSLRELISDLEHRLQGSVMELLQGVDGVIKRTENVTLKKPETFPKNQRRVFRAPDLKGMLEVFRELTDVRRYWVDVTVAPNNISCAVISEDKRQVSSPKPQIIYGAPGTLFTFPTLTNFNYCTGILGSQSITSGKHYWEVDVSKKTAWILGVCAGFQPDAMCNIEKNENYQPKYGYWVIGLEEGVKCSAFQDSSFHTPSVPFIVPLSVIICPDRVGVFLDYEACTVSFFNITNHGFLIYKFSHCSFSQPVFPYLNPRKCGVPMTLCSPSS [human TRIM5α, 330-340 = GAPGTLFTFPTLT] | 2.17 ± 0.93
4 | MASGILVNVKEEVTCPICLELLTQPLSLDCGHSFCQACLTANHKKSMLDKGESSCPVCRISYQPENIRPNRHVANIVEKLREVKLSPEGQKVDHCARHGEKLLLFCQEDGKVICWLCERSQEHRGHHTFLTEEVAREYQVKLQAALEMLRQKQQEAEELEADIREEKASWKTQIQYDKTNVLADFEQLRDILDWEESNELQNLEKEEEDILKSLTNSETEMVQQTQSLRELISDLEHRLQGSVMELLQGVDGVIKRTENVTLKKPETFPKNQRRVFRAPDLKGMLEVFRELTDVRRYWVDVTVAPNNISCAVISEDKRQVSSPKPQIIYQAPGTLYTFPTLVNFNYCTGILGSQSITSGKHYWEVDVSKKTAWILGVCAGFQPDAMCNIEKNENYQPKYGYWVIGLEEGVKCSAFQDSSFHTPSVPFIVPLSVIICPDRVGVFLDYEACTVSFFNITNHGFLIYKFSHCSFSQPVFPYLNPRKCGVPMTLCSPSS [human TRIM5α, 330-340 = QAPGTLYTFPTLV] | 0.546 ± 0.18
5 | MASGILVNVKEEVTCPICLELLTQPLSLDCGHSFCQACLTANHKKSMLDKGESSCPVCRISYQPENIRPNRHVANIVEKLREVKLSPEGQKVDHCARHGEKLLLFCQEDGKVICWLCERSQEHRGHHTFLTEEVAREYQVKLQAALEMLRQKQQEAEELEADIREEKASWKTQIQYDKTNVLADFEQLRDILDWEESNELQNLEKEEEDILKSLTNSETEMVQQTQSLRELISDLEHRLQGSVMELLQGVDGVIKRTENVTLKKPETFPKNQRRVFRAPDLKGMLEVFRELTDVRRYWVDVTVAPNNISCAVISEDKRQVSSPKPQIIYGAPGTRFTFPSFVNFNYCTGILGSQSITSGKHYWEVDVSKKTAWILGVCAGFQPDAMCNIEKNENYQPKYGYWVIGLEEGVKCSAFQDSSFHTPSVPFIVPLSVIICPDRVGVFLDYEACTVSFFNITNHGFLIYKFSHCSFSQPVFPYLNPRKCGVPMTLCSPSS [human TRIM5α, 330-340 = GAPGTRFTFPSFV] | 0.124 ± 0.034
6 | MASGILVNVKEEVTCPICLELLTQPLSLDCGHSFCQACLTANHKKSMLDKGESSCPVCRISYQPENIRPNRHVANIVEKLREVKLSPEGQKVDHCARHGEKLLLFCQEDGKVICWLCERSQEHRGHHTFLTEEVAREYQVKLQAALEMLRQKQQEAEELEADIREEKASWKTQIQYDKTNVLADFEQLRDILDWEESNELQNLEKEEEDILKSLTNSETEMVQQTQSLRELISDLEHRLQGSVMELLQGVDGVIKRTENVTLKKPETFPKNQRRVFRAPDLKGMLEVFRELTDVRRYWVDVTVAPNNISCAVISEDKRQVSSPKPQIIYGARGTLYTFPTFVNFNYCTGILGSQSITSGKHYWEVDVSKKTAWILGVCAGFQPDAMCNIEKNENYQPKYGYWVIGLEEGVKCSAFQDSSFHTPSVPFIVPLSVIICPDRVGVFLDYEACTVSFFNITNHGFLIYKFSHCSFSQPVFPYLNPRKCGVPMTLCSPSS [human TRIM5α, 330-340 = GARGTLYTFPTFV] | 0.198 ± 0.28
7 | MASGILVNVKEEVTCPICLELLTQPLSLDCGHSFCQACLTANHKKSMLDKGESSCPVCRISYQPENIRPNRHVANIVEKLREVKLSPEGQKVDHCARHGEKLLLFCQEDGKVICWLCERSQEHRGHHTFLTEEVAREYQVKLQAALEMLRQKQQEAEELEADIREEKASWKTQIQYDKTNVLADFEQLRDILDWEESNELQNLEKEEEDILKSLTNSETEMVQQTQSLRELISDLEHRLQGSVMELLQGVDGVIKRTENVTLKKPETFPKNQRRVFRAPDLKGMLEVFRELTDVRRYWVDVTVAPNNISCAVISEDKRQVSSPKPQIIYGARGTLYTFQTLTNFNYCTGILGSQSITSGKHYWEVDVSKKTAWILGVCAGFQPDAMCNIEKNENYQPKYGYWVIGLEEGVKCSAFQDSSFHTPSVPFIVPLSVIICPDRVGVFLDYEACTVSFFNITNHGFLIYKFSHCSFSQPVFPYLNPRKCGVPMTLCSPSS [human TRIM5α, 330-340 = GARGTLYTFQTLT] | 0.0282 ± 0.037
8 | MASGILVNVKEEVTCPICLELLTQPLSLDCGHSFCQACLTANHKKSMLDKGESSCPVCRISYQPENIRPNRHVANIVEKLREVKLSPEGQKVDHCARHGEKLLLFCQEDGKVICWLCERSQEHRGHHTFLTEEVAREYQVKLQAALEMLRQKQQEAEELEADIREEKASWKTQIQYDKTNVLADFEQLRDILDWEESNELQNLEKEEEDILKSLTNSETEMVQQTQSLRELISDLEHRLQGSVMELLQGVDGVIKRTENVTLKKPETFPKNQRRVFRAPDLKGMLEVFRELTDVRRYWVDVTVAPNNISCAVISEDKRQVSSPKPQIIYGARGTLFTFQSFTNFNYCTGILGSQSITSGKHYWEVDVSKKTAWILGVCAGFQPDAMCNIEKNENYQPKYGYWVIGLEEGVKCSAFQDSSFHTPSVPFIVPLSVIICPDRVGVFLDYEACTVSFFNITNHGFLIYKFSHCSFSQPVFPYLNPRKCGVPMTLCSPSS [human TRIM5α, 330-340 = GARGTLFTFQSFT] | 0.137 ± 0.16
9 | MASGILVNVKEEVTCPICLELLTQPLSLDCGHSFCQACLTANHKKSMLDKGESSCPVCRISYQPENIRPNRHVANIVEKLREVKLSPEGQKVDHCARHGEKLLLFCQEDGKVICWLCERSQEHRGHHTFLTEEVAREYQVKLQAALEMLRQKQQEAEELEADIREEKASWKTQIQYDKTNVLADFEQLRDILDWEESNELQNLEKEEEDILKSLTNSETEMVQQTQSLRELISDLEHRLQGSVMELLQGVDGVIKRTENVTLKKPETFPKNQRRVFRAPDLKGMLEVFRELTDVRRYWVDVTVAPNNISCAVISEDKRQVSSPKPQIIYQAPGTRFTFPSFTNFNYCTGILGSQSITSGKHYWEVDVSKKTAWILGVCAGFQPDAMCNIEKNENYQPKYGYWVIGLEEGVKCSAFQDSSFHTPSVPFIVPLSVIICPDRVGVFLDYEACTVSFFNITNHGFLIYKFSHCSFSQPVFPYLNPRKCGVPMTLCSPSS [human TRIM5α, 330-340 = QAPGTRFTFPSFT] | 2.47 ± 0.45

same assay, conditions: library: insertions and deletions

Row | Sequence | enrichment
10 | MASGILVNVKEEVTCPICLELLTQPLSLDCGHSFCQACLTANHKKSMLDKGESSCPVCRISYQPENIRPNRHVANIVEKLREVKLSPEGQKVDHCARHGEKLLLFCQEDGKVICWLCERSQEHRGHHTFLTEEVAREYQVKLQAALEMLRQKQQEAEELEADIREEKASWKTQIQYDKTNVLADFEQLRDILDWEESNELQNLEKEEEDILKSLTNSETEMVQQTQSLRELISDLEHRLQGSVMELLQGVDGVIKRTENVTLKKPETFPKNQRRVFRAPDLKGMLEVFRELTDVRRYWVDVTVAPNNISCAVISEDKRQVSSPKPQIIYGARGFNYCTGILGSQSITSGKHYWEVDVSKKTAWILGVCAGFQPDAMCNIEKNENYQPKYGYWVIGLEEGVKCSAFQDSSFHTPSVPFIVPLSVIICPDRVGVFLDYEACTVSFFNITNHGFLIYKFSHCSFSQPVFPYLNPRKCGVPMTLCSPSS [human TRIM5α, 8-codon deletion at 334] | 1.36 ± 0.77
11 | MASGILVNVKEEVTCPICLELLTQPLSLDCGHSFCQACLTANHKKSMLDKGESSCPVCRISYQPENIRPNRHVANIVEKLREVKLSPEGQKVDHCARHGEKLLLFCQEDGKVICWLCERSQEHRGHHTFLTEEVAREYQVKLQAALEMLRQKQQEAEELEADIREEKASWKTQIQYDKTNVLADFEQLRDILDWEESNELQNLEKEEEDILKSLTNSETEMVQQTQSLRELISDLEHRLQGSVMELLQGVDGVIKRTENVTLKKPETFPKNQRRVFRAPDLKGMLEVFRELTDVRRYWVDVTVAPNNISCAVISEDKRQVSSPKPYGARGTRYQTFVNFNYCTGILGSQSITSGKHYWEVDVSKKTAWILGVCAGFQPDAMCNIEKNENYQPKYGYWVIGLEEGVKCSAFQDSSFHTPSVPFIVPLSVIICPDRVGVFLDYEACTVSFFNITNHGFLIYKFSHCSFSQPVFPYLNPRKCGVPMTLCSPSS [human TRIM5α, 3-codon deletion at 326] | 0.448 ± 0.044
12 | MASGILVNVKEEVTCPICLELLTQPLSLDCGHSFCQACLTANHKKSMLDKGESSCPVCRISYQPENIRPNRHVANIVEKLREVKLSPEGQKVDHCARHGEKLLLFCQEDGKVICWLCERSQEHRGHHTFLTEEVAREYQVKLQAALEMLRQKQQEAEELEADIREEKASWKTQIQYDKTNVLADFEQLRDILDWEESNELQNLEKEEEDILKSLTNSETEMVQQTQSLRELISDLEHRLQGSVMELLQGVDGVIKRTENVTLKKPETFPKNQRRVFRAPDLKGMLEVFRELTDVRRYWVDVTVAPNNISCAVISEDKRQVSSPKPQIIYGARGTRYQTFVNFNFNYCTGILGSQSITSGKHYWEVDVSKKTAWILGVCAGFQPDAMCNIEKNENYQPKYGYWVIGLEEGVKCSAFQDSSFHTPSVPFIVPLSVIICPDRVGVFLDYEACTVSFFNITNHGFLIYKFSHCSFSQPVFPYLNPRKCGVPMTLCSPSS [human TRIM5α, 2-codon duplication at 342] | 0.163 ± 0.16
